Measured values taken from the BET-seq Pho4 binding data (Le et al. 2018).
The other results are listed elsewhere or left out. The energies were worked out here from pooled read counts, against the library average; single values are noisy.

The sequences below were run against T1, Pho4 (S. cerevisiae) (UniProt P07270) (assay: relative binding free energy (BET-seq); higher = weaker binding). Conditions: reference: library average.
T1 sequence: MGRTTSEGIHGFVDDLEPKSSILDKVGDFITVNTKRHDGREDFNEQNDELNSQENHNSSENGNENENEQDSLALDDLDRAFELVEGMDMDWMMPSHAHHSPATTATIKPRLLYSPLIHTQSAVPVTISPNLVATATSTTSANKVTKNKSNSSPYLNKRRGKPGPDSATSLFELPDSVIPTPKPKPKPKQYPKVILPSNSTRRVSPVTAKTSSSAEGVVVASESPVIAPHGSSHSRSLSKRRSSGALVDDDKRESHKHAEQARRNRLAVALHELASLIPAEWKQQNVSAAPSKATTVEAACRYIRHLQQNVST

Relative binding free energy, 0.26 kcal/mol:
TTTGTCACGTGAGACT, AGATTCACGTGCAGTT, TGTATCACGTGACAGG

Relative binding free energy, -0.08 kcal/mol:
ATGCGCACGTGCTTGT, GTGTGCACGTGGCGCA, TAGGGCACGTGGACGT, CGTAGCACGTGCAGGG, TGTGGCACGTGCCTTG, TTAGGCACGTGGTTGT, TTTGGCACGTGGCCAG

Relative binding free energy, -0.15 kcal/mol:
TGCTCCACGTGGGGTT, GATTGCACGTGGGTGT, GGTAACACGTGGTATT

Relative binding free energy, -0.17 kcal/mol:
CGGGGCACGTGGCGTT, ACTTGCACGTGGGGCT

Relative binding free energy, -0.09 kcal/mol:
TGTGGCACGTGCGTAG, TCAGGCACGTGTCTTG, TGTAGCACGTGTGTTA, AGGAGCACGTGTTGTT

Relative binding free energy, -0.18 kcal/mol:
TAGAGCACGTGTTGAT, TGAGGCACGTGGCAGG, GGGTCCACGTGGGTGG, TTTCGCACGTGGGTAT, CGTAGCACGTGGAGTA

Relative binding free energy, 0.33 kcal/mol:
GGCTACACGTGTGATT

Relative binding free energy, 0.19 kcal/mol:
TGCCTCACGTGTTGGT, TGTAACACGTGAGCGG, GGTGACACGTGTACTT, GTGTTCACGTGGAGTT

Relative binding free energy, 0.09 kcal/mol:
ACAGTCACGTGTAGTG, TGTTGCACGTGTTGAA, AAAGGCACGTGAATGT, GGGGCCACGTGGGAAT, GGCAGCACGTGTGAGA, TTCGACACGTGGGAGG, CGTGTCACGTGTGGGA, TACTACACGTGTTTAG

Relative binding free energy, 0.51 kcal/mol:
GGTTTCACGTGAGGGC

Relative binding free energy, 0.05 kcal/mol:
GTTGGCACGTGCGAAA, GTATCCACGTGTGGGT, TATTGCACGTGATGGG

Relative binding free energy, 0.11 kcal/mol:
GCGGTCACGTGTTAGT, GGATGCACGTGTGACG, TGGGGCACGTGAAATG, TGTTGCACGTGTGATC, TAAGTCACGTGTGTGC, TGTAGCACGTGGAACG

Relative binding free energy, -0.27 kcal/mol:
GCAAGCACGTGGGGGA

Relative binding free energy, 0.35 kcal/mol:
TGGGTCACGTGATGAT

Relative binding free energy, -0.02 kcal/mol:
AGTTGCACGTGTAAAG, CTTGTCACGTGTCTTG, TGTTGCACGTGGTAAC, ACTAACACGTGTGGGT

Relative binding free energy, 0.34 kcal/mol:
GATTACACGTGATTTG, AAGGTCACGTGAATAG, ATGTTCACGTGATTGG

Relative binding free energy, -0.01 kcal/mol:
AATTGCACGTGCGTAG, CGTGGCACGTGTAGGC, GTTGACACGTGCTGAG, ATAAGCACGTGGAGGC, CTTATCACGTGGATTG

Relative binding free energy, 0.29 kcal/mol:
GCTTACACGTGTTATA, AGGTTCACGTGTTTGA

Relative binding free energy, 0.03 kcal/mol:
ATTATCACGTGGGGAG, GATGTCACGTGGAGTG, GTTACCACGTGATGGG, GGTGTCACGTGGTGTC

Relative binding free energy, 0.45 kcal/mol:
GTGGTCACGTGATTAG

Relative binding free energy, -0.14 kcal/mol:
GTAGGCACGTGGGCCG, AGGTGCACGTGGTAGT

Relative binding free energy, -0.11 kcal/mol:
ATTCGCACGTGCGGGT, ATAGTCACGTGGGCGT, GGTGACACGTGGGCTA

Relative binding free energy, 0.13 kcal/mol:
TCGCTCACGTGTAGGG, ATTCTCACGTGGTATT, TATGTCACGTGTGAGA, GTTGTCACGTGGCCGA, GAGATCACGTGGGAGA

Relative binding free energy, 0.14 kcal/mol:
GTTCTCACGTGGGGGA, GTGGACACGTGAGCGT, ATTCACACGTGTAGTG

Relative binding free energy, 0.12 kcal/mol:
GGCTCCACGTGTGGTA, TTATTCACGTGGGCGT, TTGAGCACGTGATGGT

Relative binding free energy, -0.2 kcal/mol:
TGAGGCACGTGGCTAA, TTAGGCACGTGGGTTG, GGGAGCACGTGTCAGG

Relative binding free energy, 0.18 kcal/mol:
ATCTGCACGTGAAGGG, GTCGTCACGTGTGATG, CTTTTCACGTGTGTTA, TAGGTCACGTGATACG, TGGTTCACGTGGGTGG, GAATTCACGTGCGTGT

Relative binding free energy, 0.31 kcal/mol:
GTTTTCACGTGTTGGC, TAATTCACGTGGATGT, GGTGTCACGTGAGAAA

Relative binding free energy, 0.04 kcal/mol:
TCGGACACGTGTGTTT, TACGACACGTGTGGTG, ATGTGCACGTGTGATA, GTGGACACGTGCTTGG, ATGCGCACGTGTAGTT, ATTGGCACGTGATGAC, TTCATCACGTGGTGTG

Relative binding free energy, 0.28 kcal/mol:
GAATTCACGTGTAGAG, ATGGTCACGTGAAAGG, GGTCTCACGTGGGATT

Relative binding free energy, 0.32 kcal/mol:
GATTTCACGTGTGACG, AGGCTCACGTGGACGG, GTTGTCACGTGAAGGC, GTTTGCACGTGAGAGT

Relative binding free energy, -0.05 kcal/mol:
TGTTGCACGTGAGGCA, CATGCCACGTGGTTTG, GATTGCACGTGGCGAT, CGGGGCACGTGGACGT, CGGTGCACGTGTGTGC, ATAAGCACGTGTGTGA

Relative binding free energy, -0.06 kcal/mol:
TTACGCACGTGTGGGG, ATAGGCACGTGCGATG, TACGTCACGTGGGTAG, TGTGACACGTGGGCGC, GGTGACACGTGGGTGA, GTGTACACGTGGATAT, AGTAACACGTGTGGTA

Relative binding free energy, -0.22 kcal/mol:
CGAGGCACGTGGTCTG

Relative binding free energy, 0.02 kcal/mol:
ATTAACACGTGTAGTT, TAGGCCACGTGGAATG, CCGGGCACGTGTGTGC

Relative binding free energy, 0.01 kcal/mol:
CGGTGCACGTGATTCG, TTAGGCACGTGTTGAT, TATTGCACGTGGATCT

Relative binding free energy, 0.4 kcal/mol:
ATTTTCACGTGAAGTC

Relative binding free energy, 0 kcal/mol:
GATGGCACGTGTAGGA, ATGTACACGTGGGCGT, TCAGTCACGTGGCGGG, AAGCGCACGTGTTGTA

Relative binding free energy, -0.13 kcal/mol:
TAGAACACGTGCGGGG

Relative binding free energy, 0.24 kcal/mol:
GGTAACACGTGATAGA, AGGGACACGTGAATAG

Relative binding free energy, 0.21 kcal/mol:
AGGTTCACGTGCTATT, TGTTTCACGTGCGGAT, GCGGTCACGTGTGGGG

Relative binding free energy, 0.25 kcal/mol:
GTTATCACGTGCGTCA

Relative binding free energy, -0.23 kcal/mol:
TATAGCACGTGGGGTT, TTAGGCACGTGTTTCA

Relative binding free energy, 0.1 kcal/mol:
CATAACACGTGTTGGG, TGGATCACGTGGGAAA, TTAATCACGTGTTATT, TGACGCACGTGTAATT, TTTTACACGTGGTGGC, ATTAGCACGTGGATTA

Relative binding free energy, -0.04 kcal/mol:
TACTGCACGTGGGCGT, CAGGACACGTGGCGGG, AGTTGCACGTGGTGAA

Relative binding free energy, -0.16 kcal/mol:
TGCTGCACGTGGGGTC

Relative binding free energy, -0.1 kcal/mol:
TTGAGCACGTGTCTGG, TAGAGCACGTGGCAGT, AGCTGCACGTGTGGGC, GTGTGCACGTGTTTTC

Relative binding free energy, 0.07 kcal/mol:
ATTATCACGTGCTGGA, TATAGCACGTGAAGTT, TGATCCACGTGGTTAA, GTGGACACGTGTAATT, TGGGACACGTGGATAT

Relative binding free energy, -0.03 kcal/mol:
CTTATCACGTGTGTGT, AGTTGCACGTGGGAAG, AAAGTCACGTGGGTTA, TTTACCACGTGTGGAG, AACGGCACGTGGGTAA, AAGAGCACGTGGTGAT

Relative binding free energy, -0.34 kcal/mol:
TGGGCCACGTGGGCGT, TGCCGCACGTGGGGCG

Relative binding free energy, -0.21 kcal/mol:
TGGGGCACGTGCTAGC

Relative binding free energy, -0.26 kcal/mol:
CACGGCACGTGGGTGT

Relative binding free energy, -0.12 kcal/mol:
GTAGGCACGTGCGTGG, GGCAGCACGTGGGTAT, GGGAGCACGTGGTCAT, GGGGCCACGTGGTGAC, GGAGGCACGTGGAGTG, CAGTGCACGTGGGGGA

Relative binding free energy, 0.08 kcal/mol:
GTCGTCACGTGTTAGT, TAAAGCACGTGTAATG, TTTGTCACGTGGTAAT, TGCTGCACGTGTTAAG, CTATGCACGTGATATG, TTTTACACGTGTGAAT, AATGTCACGTGGAGGG

Relative binding free energy, 0.23 kcal/mol:
GTTGTCACGTGTTTCA, TGTTGCACGTGAGAGT, GGGCTCACGTGGGCTG

Relative binding free energy, -0.19 kcal/mol:
ATACGCACGTGGTGGT, GGCGGCACGTGGCGAG

Relative binding free energy, 0.27 kcal/mol:
GGATTCACGTGGGGTT, CTTGTCACGTGGAAGC, TTGTACACGTGAGTGA, CCGGACACGTGAGGTG, CGTTACACGTGATAGG, ATCCTCACGTGTGGGG, GGAGTCACGTGAGTTA, ATGTACACGTGAGGGT, AGTCTCACGTGGAAGT, GTTTTCACGTGGTTGG

Relative binding free energy, 0.15 kcal/mol:
GGTAACACGTGACGGT

Relative binding free energy, 0.42 kcal/mol:
ACGTTCACGTGAAGTG

Relative binding free energy, 0.22 kcal/mol:
GTCATCACGTGTGGTG, GAAGTCACGTGATAGG, CGATTCACGTGGTTTG, CTTCTCACGTGGTATG, GTTTCCACGTGTGAAT, GCGTTCACGTGCTTGG

Relative binding free energy, 0.2 kcal/mol:
GGCTGCACGTGGAAGT, AGTATCACGTGTAGTC, AGTTGCACGTGAGTTT

Relative binding free energy, 0.06 kcal/mol:
ATTGGCACGTGATGTT, TTCGTCACGTGCGGAT, TTTTCCACGTGCGTTT, GATTGCACGTGCGGTG, GGGGCCACGTGGAATT

Relative binding free energy, 0.41 kcal/mol:
CTTCTCACGTGAGTGG

Relative binding free energy, 0.37 kcal/mol:
GCTTTCACGTGTGGTG, GGTGTCACGTGAAGTC

Relative binding free energy, -0.07 kcal/mol:
TAATCCACGTGGTTGG, GGACGCACGTGGTGCG

Relative binding free energy, 0.16 kcal/mol:
TAGGTCACGTGTAGAG, CGTTGCACGTGTTTTC, TTAGTCACGTGTAATT, TTGTGCACGTGACTTG, TCTTACACGTGGGGAT, AGTCTCACGTGCGGGG

Relative binding free energy, 0.17 kcal/mol:
AGGTTCACGTGATGTA, TTTTGCACGTGTGACT
